The text below walks through data of PubChem BioAssay AID488969 (Vanderbilt High Throughput Screening Facility, 2010).

Whole data set: some 110,000 compounds, median “z-score” near -0.1, cut for the highest 2% near 2. This is one part of the list.

The experiment deals with Metabotropic glutamate receptor 8 (Rattus norvegicus) (UniProt P70579). The experiment in a line: mGluR8 Gi/Go-coupled signaling modulation – cell-based, rat, thallium flux, HTS, primary screen (AID 488969). To be noted: HEK293 rat mGluR8, GIRK (G protein-gated inwardly rectifying potassium channel) thallium flux, FluoZin2; at 10 µM; stronger effect = higher value; submaximal glutamate (EC20) added with thallium.
Sequence of UniProt P70579 (P70579 whole entry, looked up): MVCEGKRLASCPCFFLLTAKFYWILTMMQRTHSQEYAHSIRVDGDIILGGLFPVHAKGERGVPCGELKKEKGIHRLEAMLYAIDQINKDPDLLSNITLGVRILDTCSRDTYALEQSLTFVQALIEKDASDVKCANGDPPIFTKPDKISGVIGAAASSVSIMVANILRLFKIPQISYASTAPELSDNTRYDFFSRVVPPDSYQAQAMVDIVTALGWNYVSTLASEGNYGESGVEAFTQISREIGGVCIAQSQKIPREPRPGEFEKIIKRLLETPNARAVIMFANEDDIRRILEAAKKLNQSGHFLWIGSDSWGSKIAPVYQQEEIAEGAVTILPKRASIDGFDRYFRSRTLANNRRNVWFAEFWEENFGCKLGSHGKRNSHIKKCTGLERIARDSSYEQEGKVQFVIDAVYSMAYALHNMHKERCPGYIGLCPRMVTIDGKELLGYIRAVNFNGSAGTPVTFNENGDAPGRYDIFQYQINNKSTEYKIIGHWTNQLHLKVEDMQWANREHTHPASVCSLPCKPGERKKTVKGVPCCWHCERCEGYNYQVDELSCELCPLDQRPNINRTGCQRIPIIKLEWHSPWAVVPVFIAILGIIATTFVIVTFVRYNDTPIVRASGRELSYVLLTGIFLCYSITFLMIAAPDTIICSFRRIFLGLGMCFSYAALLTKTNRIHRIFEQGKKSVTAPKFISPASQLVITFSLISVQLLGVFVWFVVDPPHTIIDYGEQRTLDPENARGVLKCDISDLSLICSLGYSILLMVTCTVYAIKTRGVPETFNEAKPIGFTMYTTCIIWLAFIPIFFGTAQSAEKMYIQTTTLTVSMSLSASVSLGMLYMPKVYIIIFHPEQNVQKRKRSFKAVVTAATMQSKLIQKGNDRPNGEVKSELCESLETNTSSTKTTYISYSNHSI
Molecule `CCOc1ccccc1NC(=O)C1CC(=O)n2ncnc2N1` (configuration not stated) had a z-score of -0.15.

Consider `CCn1c(CCn2ccnc2C)n[nH]c1=S`, for which the z-score is 0.253.

In the case of `Cc1c(C(=O)O)c(-c2ccccc2)nn1-c1ccccc1`, the z-score turned out to be 0.22.

In turn, `CCCNNC(=O)C(O)(c1ccccc1)c1ccccc1` came in with a z-score of 0.449.

For `COc1ccc(C2N(C(=O)c3ccccc3)CCN2C(=O)c2ccccc2)cc1`, the z-score was 0.273.

Molecule `COC(=O)C1(S(=O)(=O)C2(C(=O)OC)CCCC2)CCCC1` yielded a z-score of 0.165.

For `COc1ccc(C2(C(=O)NCCN3CCOCC3)CCOCC2)cc1`, the z-score is 0.206.

With `COc1ccc(C2=NOC3(CC(=O)N(c4ccc(C)cc4)C3=O)C2)cc1` (configuration not stated), the z-score is -0.444.

For the molecule `COc1ccc(NC(=O)CN2C(=O)C(C)Oc3ccccc32)cc1` (configuration not stated), the z-score is -0.12.

The molecule `O=C(COc1ccc(F)cc1)Nc1nnc(-c2ccncc2)s1` displayed a z-score of -0.283.

`O=C(NNC1=NCCC1)c1ccc(Br)cc1` displayed a z-score of -0.0333.

Consider `CC(=O)Nc1ccc(S(=O)(=O)NCCSCc2ccccc2Cl)cc1`, for which the z-score is -0.178.

In the case of `C=CCSc1nc(N)c(C(=O)Nc2ccccc2C)cc1C(N)=O`, the z-score is -0.41.

`N=c1sccn1CC(=O)Nc1ccccc1Cc1ccccc1`: the z-score stood at 0.385.

Regarding `Cc1ccc(S(=O)(=O)NCC(C)NS(C)(=O)=O)cc1` (configuration not stated), the z-score is -0.186.

With `CCC(C)(C)C(=O)Nc1ccc(OC)cc1[N+](=O)[O-]`, the z-score is -0.0898.

Regarding `COC(=O)c1ccccc1NC(=O)CSc1nnc(CNS(=O)(=O)c2ccc(C)cc2)n1C`, the z-score is -1.17.

Turning to `CCc1nc(NCC2CCCO2)c(C#N)c2c1COC(C)(C)C2` (configuration not stated), the z-score was -0.743.

`Cc1ccc(C2(c3ccc(C)cc3)NC(=O)N(Cc3c(C)noc3C)C2=O)cc1` displayed a z-score of 0.501.

As to `CC(C)c1ccc(NC(=S)NCc2cccs2)cc1`, the z-score is -0.117.

Molecule `O=C(CCC(=O)N(c1ccc(F)cc1)C(C(=O)NC1CCCC1)c1ccncc1)Nc1cccnc1` (configuration not stated) came in with a z-score of 0.0842.

With `O/N=C(/CCc1ccccc1)C1(O)CCCCC1`, the z-score is 0.131.

`COc1ccccc1C/C(N)=N/OC(=O)COc1ccc(C)cc1C` displayed a z-score of -0.34.

`CCNc1nc(NCC)nc(Nn2cnnc2)n1` yielded a z-score of -0.325.

Molecule `COC(=O)CCN(c1ccccc1)S(=O)(=O)c1ccc(OC)cc1` registered a z-score of -0.159.

For `Cn1c(=O)cc(-c2ccccc2)c2ccccc21`, the z-score is -0.748.

For `O=C(CCC(=O)NNC(=O)COc1ccccc1)NCc1ccccc1`, the z-score is -0.0104.

Take `CS(=O)(=O)c1ccc2nc(NC(=O)c3ccco3)sc2c1`: the z-score came to 0.66.

`O=C(Nc1ccc(-c2nc3ccccc3s2)cc1)C1=COCCO1` displayed a z-score of -0.24.

Take `O=S(=O)(c1cc(Cl)ccc1Cl)N1CCCC1`: the z-score is -0.172.

As to `CC1CCN(CC(=O)N2CC(=O)Nc3ccccc32)CC1`, the z-score is -0.177.

Regarding `N#CCCn1c(SCC(=O)N2CCN(S(=O)(=O)c3ccccc3)CC2)nc2ccccc21`, the z-score was -1.08.

Turning to `CC(=O)Nc1c(O)nc(SCC(=O)Nc2sc3c(c2C#N)CCCCCC3)[nH]c1=O`, the z-score is -0.257.

With `O=S(=O)(Cc1ccccc1)N1CCN(Cc2ccccc2)CC1`, the z-score is -0.122.

Regarding `CC1CCCC(C)N1CCNC(=O)C1CCN(S(=O)(=O)N2CCCCC2)CC1` (configuration not stated), the z-score is -0.337.

Consider `CC(C)(C)OC(=O)N/N=C/c1cc(N=Nc2ccccc2)ccc1O`, for which the z-score was -0.136.

In turn, `CCCNC(=O)N[C@@H](Cc1ccccc1)C(=O)OC` returned a z-score of 0.0758.

Regarding `CCCC(=O)NC(Nc1ccc(S(=O)(=O)Nc2cc(C)on2)cc1)(C(F)(F)F)C(F)(F)F`, the z-score is -0.0511.

`Cc1ccccc1NC(=S)NC1CC2CCC(C1)N2Cc1ccco1` (configuration not stated): the z-score was found to be 0.0979.

`COCCn1nnnc1C(c1ccc2ncccc2c1)N1CCN(c2ccccc2F)CC1` (configuration not stated) came in with a z-score of -0.355.

The molecule `COc1cc(-c2nc3ccccn3c2/N=C/c2ccccc2)ccc1O` gave a z-score of -0.248.

`COc1ccc(OCC(O)CNc2ccc(Br)cc2)cc1` (configuration not stated): the z-score was -0.364.

`O=[N+]([O-])c1ccc(C2CCCC/C2=N/OCc2ccccc2F)c([N+](=O)[O-])c1` (configuration not stated) returned a z-score of 0.27.

Consider `COc1ccc(Br)cc1C(=O)Nc1ccc(NC(=O)c2ccco2)cc1`, for which the z-score came out at 0.122.

For the molecule `CC1(C)Cc2c(sc(/N=C/N3CCCCC3)c2C#N)C(C)(C)N1`, the z-score was 0.519.

Consider `Cc1c(C#N)c2ccccc2n1CC(=O)NCc1ccccc1`, for which the z-score was -0.11.

Turning to `COc1ccc(C(=O)NCC(=O)O)cc1`, the z-score was -0.395.

In the case of `COc1cc(/C=N/N2CCN(C3c4ccccc4-c4ccccc43)CC2)ccc1O`, the z-score is -0.203.

The molecule `COc1ccccc1Nc1nc2ccccc2n1C` gave a z-score of -0.233.

`CC1CCCCC1NCC(=O)Nc1ccccc1-c1ccccc1` (configuration not stated) came in with a z-score of 0.416.

`CCc1nc(N)c(C#N)c(-c2cccc3ccccc23)c1C` gave a z-score of 0.197.

The molecule `NC(=O)C1CCN(C(=O)OCc2ccccc2)CC1` showed a z-score of -0.192.

In turn, `Cc1cc2occ(CC(=O)Nc3nccs3)c2cc1C(C)C` displayed a z-score of -0.304.

With `CN(C)c1nc2n(c(=S)n1)CCS2`, the z-score came to 0.264.

Turning to `CCOc1ccc(N2C(=O)CC(S/C(N)=N/N=C/c3cccs3)C2=O)cc1` (configuration not stated), the z-score stood at 0.12.

The molecule `Cc1ccc(Sc2ccc(/C=N/O)cc2[N+](=O)[O-])cc1` came in with a z-score of -0.7.

For `Cc1ccc2cc3cc(C(=O)NCCN4CCOCC4)oc3nc2c1`, the z-score was found to be 0.715.

In the case of `COc1ccc(C(=O)NCCSCc2ccco2)cc1OC`, the z-score was -0.85.

In the case of `CCOc1ccc(-c2nnn(CC(=O)c3ccc4c(c3)OCCO4)n2)cc1`, the z-score amounted to 0.498.

Consider `Cc1ccc(S(=O)(=O)n2nc(C)cc2C)cc1`, for which the z-score turned out to be 0.0429.

On to `COc1cccc(-n2cnc3sc(C)c(C)c3c2=O)c1`, for which the z-score is -0.425.

`CCC(=O)N1C(C(=O)NCc2ccc(OC)cc2)CSC1c1ccc(OC)cc1` (configuration not stated) returned a z-score of -0.585.

`CCN1CCN(c2nc3ccccc3nc2C(C#N)S(=O)(=O)c2ccc(C)c(C)c2)CC1` (configuration not stated): the z-score was -0.433.

The molecule `Cc1ccc(S(=O)(=O)N(c2cccc(C)c2)C2CCS(=O)(=O)C2)cc1` (configuration not stated) showed a z-score of -0.0872.

The molecule `CCc1nnc(NC(=O)CSc2nnc(-c3ccc(S(=O)(=O)N(CC)CC)cc3)n2CC)s1` returned a z-score of -0.154.

`COc1ccc(OC)c(-c2cc(C(=O)N3CCN(c4ncccn4)CC3)c3ccccc3n2)c1` showed a z-score of -2.06.

The molecule `Cc1ccc(NC(=O)c2cc(N3C(=O)C4CC=CCC4C3=O)ccc2N2CCCCC2)cc1` (configuration not stated) displayed a z-score of -0.0875.

Molecule `CCc1ccc(C2C(C#N)=C(N)Oc3n[nH]c(CC(=O)OC)c32)cc1` (configuration not stated) yielded a z-score of -0.139.

`O=C(CCCn1c(SCC(=O)NCC2CCCO2)nc2ccccc2c1=O)NCc1ccccc1` (configuration not stated): the z-score is -0.11.

The molecule `CC(C)NC(=O)Cn1c(=O)c2c(ncn2Cc2ccccc2)n(Cc2ccccc2)c1=O` registered a z-score of -0.566.

The molecule `COc1ccc(CNC(=O)CCSCc2ccccc2Cl)c(OC)c1` had a z-score of -0.407.

The molecule `CC(=O)NC1CC2CCCC(C1)N2C(=O)Nc1ccc(Cl)c(C(F)(F)F)c1` (configuration not stated) showed a z-score of -0.621.

As to `CN(c1ccccc1)S(=O)(=O)c1cccc(NC(=O)Cn2cnc3ccccc3c2=O)c1`, the z-score was -0.311.

`Cc1ccc(NC(=O)c2ccc(N3C(=O)C4CC=C(Cl)CC4C3=O)cc2)cc1` (configuration not stated): the z-score was -0.136.

For `O=C(CC(NC(=O)c1ccccc1Cl)c1ccccc1)Nc1ccc2c(c1)OCO2` (configuration not stated), the z-score was -0.214.

In turn, `Cc1cc(OCC(=O)NCCN2CCOCC2)cc(C)c1Br` displayed a z-score of 0.00352.

Molecule `O=C(c1ccc(Cl)cc1)N1CCC(O)(CSc2ccc(Cl)cc2)CC1` came in with a z-score of 0.0754.

With `O=C(OCc1ccc(Cl)cc1Cl)c1cccnc1Cl`, the z-score was -0.157.

For `Cn1cnnc1SC(C(=O)Nc1ccc(F)cc1)c1ccccc1` (configuration not stated), the z-score was -0.0653.

In turn, `COc1ccc(CCNC(=S)Nc2cc(C)ccc2C)cc1` displayed a z-score of 0.993.

Consider `CC1=CCC2C(=O)N(c3cc(C)on3)C(=O)C2C1` (configuration not stated), for which the z-score is -0.233.

As for `Oc1cc2ccccc2cc1-c1nnc2n1-c1ccccc1SC2`, the z-score is -0.0288.

`Cc1cc(C)c(C)c(S(=O)(=O)N2CCC(C(=O)Nc3ccccc3N3CCOCC3)CC2)c1C` showed a z-score of -0.125.

For the molecule `CC(=O)c1ccn(S(=O)(=O)c2ccccc2)c1`, the z-score came to 0.134.

Molecule `COc1ccc(-n2nc(C(=O)NCc3ccco3)c3ccccc3c2=O)cc1` displayed a z-score of -0.158.

`Cc1cccc(C)c1OCc1nc2ccccc2c(=O)n1/N=C/c1c[nH]c2ccccc12` yielded a z-score of -0.077.

The molecule `COc1ccccc1CNC(=O)c1nn(-c2ccc(C)cc2)c(=O)c2c1c1ccccc1n2C` returned a z-score of -0.421.

For `CCN(CC)C(=O)CSc1nc2ncc(Cl)cc2[nH]1`, the z-score came out at 0.365.

In turn, `C=CCN(CC=C)C(=O)C1CC(=O)N(c2ccc(Br)cc2)C1` (configuration not stated) returned a z-score of 0.000969.

In the case of `Cc1cc(OC(=O)c2cc(F)c(F)cc2Cl)nc(C)n1`, the z-score turned out to be 0.0986.

In the case of `Cc1cc(Br)ccc1NC(=O)CNC(=O)CN(C)Cc1nc2ccccc2c(=O)[nH]1`, the z-score is 0.0175.

Consider `Cc1onc(-c2ccccc2Cl)c1C(=O)NCCCN1CCOCC1`, for which the z-score turned out to be 0.356.

As for `CCOc1ccc(N2C(=O)CC(N3CCc4ccccc43)C2=O)cc1` (configuration not stated), the z-score was 1.67.

`CCN(CC)S(=O)(=O)c1cc(NS(=O)(=O)c2cccc(Cl)c2Cl)ccc1C`: the z-score is -0.439.

`O=C1NCCc2c1[nH]c1ccccc21`: the z-score worked out at 1.33.

The molecule `COc1ccccc1C(=O)Nc1ccccc1SC` returned a z-score of -2.26.

Consider `N#CCCN(Cc1ccccc1)C(=S)NC(=O)c1ccccc1`, for which the z-score came out at 2.39.

As to `CCOc1ccccc1/C=N/NC(=O)Cc1csc(Nc2cccc(C(F)(F)F)c2)n1`, the z-score is -0.0917.

As for `c1ccc2c(c1)c1ccccc1n1c(-c3ccc4c(c3)OCO4)nnc21`, the z-score was -0.399.

`Cc1cc2c(cc1C)C(c1cc(Br)ccc1F)CC(=O)N2` (configuration not stated) had a z-score of -0.204.

On to `O=C1c2ccccc2C(=O)C12OC2c1ccc(Cl)cc1` (configuration not stated), for which the z-score is -0.344.

`COc1cccc(C(=O)Nc2nc(-c3ccc(S(=O)(=O)N4CCOCC4)cc3)cs2)c1` gave a z-score of -0.223.

`CCCCN(CC)C(=O)CSc1nc2ccccc2c(=O)n1CC1COc2ccccc2O1` (configuration not stated) yielded a z-score of -0.739.

As for `Cc1nc(-c2ccc(C(=O)N3CCOCC3)cc2)cs1`, the z-score came to 0.0461.

For the molecule `CCOc1ccc(NC(=O)C(C)Oc2ccccc2C(=O)Nc2ccc(C)c(Cl)c2)cc1` (configuration not stated), the z-score is -0.167.

On to `O=C(Nc1ccc2c(c1)OCO2)C1CCCN(S(=O)(=O)Cc2ccccc2)C1` (configuration not stated), for which the z-score was -0.171.

Consider `Cc1nc2nc(SCC(=O)c3cccc([N+](=O)[O-])c3)[nH]c2cc1Br`, for which the z-score is -0.352.

As for `COC(=O)/C=C1/N/C(=N\c2nc(C)cc(C)n2)N(c2ccc(Cl)cc2)C1=O`, the z-score was -0.0567.

In turn, `COc1cc(NC(=O)c2ccc(Br)o2)ccc1NC(=O)c1ccccc1Cl` came in with a z-score of -1.12.

`COc1cc(C(=O)OCC(=O)N(C)Cc2ccccc2)cc(OC)c1OC` came in with a z-score of -0.417.

For the molecule `Cc1ccc(C(=O)N/C(=C\c2cccs2)C(=O)NCc2cccnc2)cc1`, the z-score was -0.235.

For the molecule `COc1ccc(Cc2nc(C(=O)Nc3ccccc3)cs2)cc1`, the z-score was -0.483.
